# From PubChem BioAssay AID1346428 (National Center for Advancing Translational Sciences (NCATS), 2018)
# Values joined by “and” are separate entries in the source; they are usually repeats but may differ in a detail not shown here. Equal values may be shown once. In all, about 48,000 compounds went through this assay and about 1,200 (2.5%) were called active. Inconclusive results (about 2%) are left out.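 Rule for the calls: active = activation of at least 60% and not above a set upper limit (about 1 call in 100 departs from these limits); inconclusive = activation of 40% to 60%, or above that upper limit; inactive = activation under 40%.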 The list shows a part of the results.
# Molecular target: Probable G-protein coupled receptor 32 (Homo sapiens) (UniProt O75388)
# Assay: qHTS for Agonists of Human Resolvin D1 Receptor DRV1
# Conditions: CHO-K1 GPR32 beta-arrestin PathHunter luminescence, 90 min; at 76.9 µM; stronger effect = higher value; zero percent set by DMSO-only wells
# How it was run: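 Beta-arrestin recruitment read-out: luminescence from complemented beta-Gal in CHO-K1 GPR32 PathHunter cells, measured 1 h after detection reagent at ambient temperature following 90 min compound exposure at 37 °C; DMSO served as basal (EC0) control.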
# Chain of UniProt O75388 (O75388 whole entry, looked up): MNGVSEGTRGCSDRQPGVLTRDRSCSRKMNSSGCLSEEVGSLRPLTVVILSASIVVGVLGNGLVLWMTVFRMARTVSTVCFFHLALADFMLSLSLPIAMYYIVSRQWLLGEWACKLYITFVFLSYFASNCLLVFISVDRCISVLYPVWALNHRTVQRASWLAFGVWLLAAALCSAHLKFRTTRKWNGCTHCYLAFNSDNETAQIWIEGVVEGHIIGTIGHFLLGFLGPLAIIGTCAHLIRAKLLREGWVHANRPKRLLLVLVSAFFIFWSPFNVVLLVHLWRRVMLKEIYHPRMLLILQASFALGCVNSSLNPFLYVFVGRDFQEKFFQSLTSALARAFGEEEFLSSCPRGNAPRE
row,SMILES,activation
1,Cc1cccc(NC(=O)Cn2c(=O)n(Cc3ccccc3)c(=O)c3sc4ccccc4c32)c1,inactive: -0.886%
2,Fc1ccc(-c2noc3ncnc(Nc4ccc(F)cc4F)c23)cc1,inactive: 22.9%
3,CCc1cccc(C)c1Nc1c(-c2ccc(SC)cc2)nc2sccn12,inactive: -13.4%
4,Cc1ccc(CNc2nc3ccc(Cl)cc3n3cnnc23)cc1,inactive: -25.9%
5,COC(=O)c1ccccc1NC(=O)C1=CC(c2ccc3c(c2)OCO3)=NS(=O)(=O)N1C,inactive: 4.8%
6,COc1ccc(S(=O)(=O)c2c(Nc3c(C)cccc3C)sc(C(=O)c3ccc(F)cc3)c2N)cc1,inactive: -22.7%
7,Cc1cccc(-c2nc(CCNC(=O)COc3ccccc3)cs2)c1,inactive: -23.2%
8,Cc1cccc(NC(=O)CSc2ncc(-c3ccc(Br)cc3)[nH]2)c1,inactive: -33.9%
9,O=C(CSc1ccc(-c2cccs2)nn1)Nc1ccccc1,inactive: 7.42%
10,Cc1ccc(CN(Cc2ccco2)C(=O)c2ccc(Cl)cc2Cl)cc1,inactive: 9.47%
11,COc1ccc(CCNC(=O)Cn2nnc(-c3ccc(Cl)cc3)n2)cc1OC,inactive: -9.45%
12,COc1ccc(-c2cc(-c3ccccc3)nc(SCC(=O)Nc3ccccc3C)c2C#N)cc1,inactive: -6.44%
13,COc1cccc(CNc2nc3ccccc3c3nc(-c4cccc(C)c4)nn23)c1,inactive: -15.9%
14,CCN1CCc2nc(N)oc2CC1,inactive: 7.77% and inactive: -1.86%
15,CC(=O)c1cccc(NC(=O)Nc2c(C)n(C)n(-c3ccccc3)c2=O)c1,inactive: -1.39%
16,CCN1CCc2c(sc(NC(=O)c3ccc(S(=O)(=O)N(CCOC)CCOC)cc3)c2C(N)=O)C1,inactive: -45.3%
17,Cc1ccc(-c2nc3cc(NC(=O)c4cc5ccccc5o4)ccc3o2)cc1Cl,inactive: 10.9%
18,CCOCCCn1c(SCC(=O)Nc2cc(C)ccc2C)nc2c(oc3ccccc32)c1=O,inactive: 7.73%
19,COC(=O)c1ccc(NC(=O)CN2CCCN(Cc3ccc(Cl)cc3)S2(=O)=O)cc1,inactive: 7.73%
20,CC(NC(=O)CN1C(=O)COc2ccc(S(=O)(=O)N3CCCCCC3)cc21)c1ccccc1 (configuration not stated),inactive: -40.3%
21,Cc1ccc(Sc2c(C(=O)NCc3cccc(F)c3)[nH]c3ccccc23)cc1,inactive: 0.638%

row,SMILES,activation
1,CC(C)Oc1ccc(CN2CCc3nc(Nc4ccc5c(c4)OCCO5)ncc3C2)cc1,inactive: -25.6%
2,CN(C)CCNC(=O)c1ccc(-n2c(-c3ccccc3)cc3c2CCCCC3)cc1,inactive: -25.2%
3,Cc1[nH]n(-c2ccccc2)c(=O)c1C(c1cc(Cl)ccc1O)c1c(C)[nH]n(-c2ccccc2)c1=O,inactive: -31.6%
4,CC1=C(C(=O)Nc2ccccc2)C(c2ccccc2C)n2nc(SCC(=O)c3ccc(C)cc3)nc2N1 (configuration not stated),inactive: -13.8%
5,COCCCNc1nc2c(S(=O)(=O)c3ccccc3)nnn2c2ccc(Cl)cc12,inactive: 3.4%
6,O=C(NCc1cccs1)c1nn(-c2ccccc2Cl)nc1CO,inactive: -8.05%
7,CCOC(=O)c1ccccc1NC(=O)N1CCN(Cc2cc(=O)n3nc(-c4ccccc4)sc3n2)CC1,inactive: 2.83%
8,Cc1cccc(NC(=O)CSc2nc(-c3cccs3)cc(C(F)(F)F)c2C#N)c1C,inactive: -11.9%
9,COC(=O)c1c(-c2cccs2)csc1NC(=O)c1cccc(Cl)c1,inactive: -16.8%
10,COC(=O)c1c(-c2cccs2)csc1NC(=O)c1ccc(Br)cc1,inactive: 33.7%
11,CCOc1ccc(-c2cc(CCCC(=O)NCCc3ccc(Cl)cc3)no2)cc1,inactive: 1.29%
12,O=C(NCCc1csc(-c2ccc(C(F)(F)F)cc2)n1)c1ccc(F)c(F)c1,inactive: 41%
13,CCc1ccc(NC(=O)CCS(=O)(=O)c2cc3c(cc2Cl)NC(=O)CO3)cc1,inactive: -0.978%
14,CCN(c1cccc(C)c1)S(=O)(=O)c1ccc(-n2cccn2)cc1,inactive: 23.7%
15,Cc1ccc(-c2cc(C(=O)NCc3cnn(C)c3C)c3ccccc3n2)cc1C,inactive: 31.3%
16,Cc1ccc(C(=O)N2CCc3cc(CNC(=O)CSc4ccccc4)ccc32)cc1,inactive: -36.3%
17,CCN(c1ccccc1)S(=O)(=O)c1cc(Br)cc2c1N(C(=O)C1CC1)CC2,inactive: -8.21%
18,Cc1cccc(-c2c3c(=O)n(C)c(=O)n(C)c3c3c(C)nc4ccccc4n23)c1,inactive: -7.69%
19,N#Cc1ccc(S(=O)(=O)N2CCC(Oc3cccc(C(F)(F)F)c3)CC2)cc1,inactive: -6.12%
20,COc1ccc(CNC(=O)C(=O)Nc2c3c(nn2-c2ccccc2)CSC3)cc1,inactive: -29.3%
21,COc1cc(OC)c(OC)cc1CN1CCc2nc(Nc3ccc4c(c3)OCCO4)ncc2C1,inactive: -8.15%

row,SMILES,activation
1,CCCNC(=O)C1=CC(c2ccc3c(c2)OCO3)=NS(=O)(=O)N1C,inactive: -3.12%
2,COc1cccc(C2c3c(oc4cc(C)cc(C)c4c3=O)C(=O)N2CCc2ccc(OC)c(OC)c2)c1 (configuration not stated),inactive: -2.91%
3,COc1ccc(NC(=O)CCS(=O)(=O)c2nc(-c3cccs3)cc(C(F)(F)F)n2)cc1,inactive: -31.6%
4,CCCc1cc(=O)n2c(C(=O)Nc3ccc(OCC)cc3)c(C(=O)Nc3ccc(C)cc3)sc2n1,inactive: 1.3%
5,CN(CC(=O)NCc1ccc(Cl)cc1)S(=O)(=O)c1ccc2[nH]c3c(c2c1)CCCC3,inactive: 11.4%
6,COc1ccc(CNc2nc(-c3ccccc3)nn2S(=O)(=O)c2ccccc2)cc1,inactive: -4.79%
7,COc1ccccc1CNC(=O)CCC1N=C2c3ccccc3N=C(SCC(=O)Nc3ccc(F)cc3)N2C1=O (configuration not stated),inactive: -14.5%
8,Cc1ccc2c(c1)c1c(c(=O)n(-c3cccc(Cl)c3)c(=O)n1CC(=O)NCCC1=CCCCC1)n2C,inactive: -4.16%
9,CCn1c(SCc2ccccc2C)nc(=O)c2c(C(=O)OC)cc(C3CC3)nc21,inactive: -7.59%
10,O=C(Nc1nnc(-c2cc(Cl)ccc2Cl)o1)c1ccc2c(c1)OCCO2,inactive: -2.26%
11,COc1ccc(-n2c(Cc3ccccc3)nnc2SCc2nc(-c3cccs3)no2)cc1,inactive: 1.25%
12,O=c1cc(CSc2ncn[nH]2)[nH]c2ccc(F)cc12,inactive: -2.27%
13,CCc1ccc(NS(=O)(=O)c2ccc3oc(=O)c4ncn(CC)c4c3c2)cc1,inactive: 12.6%
14,CCOC(=O)C1CCC(CN(Cc2ccc(OC)cc2)S(=O)(=O)c2ccc(F)c(C(=O)Nc3ccc(C)c(C)c3)c2)CC1 (configuration not stated),inactive: 6.11%
15,CCN(CC)S(=O)(=O)c1ccc2c(c1)N(CC(=O)N1CCN(c3cccc(Cl)c3)CC1)C(=O)CO2,inactive: -32%
16,CCC1CN(C(=O)N2CCC(C(=O)NCCc3cc(OC)ccc3OC)CC2)c2ccccc2O1 (configuration not stated),inactive: -11.8%
17,CN(C)C1(CNC(=O)COc2ccc([N+](=O)[O-])cc2)CCCCC1,inactive: -3.5%
18,CCN(C(=O)Cn1c(=O)n(CCCS(=O)(=O)C2CCCCC2)c(=O)c2ccccc21)c1cccc(C)c1,inactive: 2.58%
19,COc1cccc(-n2cc(C(=O)Nc3cccc(C(F)(F)F)c3)c3ccccc3c2=O)c1,inactive: -20.6%
20,CC(C)Oc1ccc(CNC(=O)c2ccc(CS(=O)c3cccc(Cl)c3)o2)cc1 (configuration not stated),inactive: -0.247%
21,Cc1ccc(NC(=O)N2CCc3cc(S(=O)(=O)N4CCC(C)CC4)ccc32)cc1,inactive: -12.1%

row,SMILES,activation
1,CCn1c(CN2CCOCC2)nc2cc(NC(=O)c3ccccc3[N+](=O)[O-])ccc21,inactive: -23.6%
2,CC(=O)Nc1cc(-c2nc3cc(Cl)ccc3o2)ccc1C,inactive: -3.75%
3,CC1CCN(C(=O)Cn2c(=O)n(CCCCCC(=O)NCc3ccccc3Cl)c(=O)c3sccc32)CC1,inactive: -27.8%
4,Cc1ccc(Cl)cc1Nc1nn2c(=O)c3ccc(C(=O)Nc4ccc(F)cc4)cc3nc2s1,inactive: 22.4%
5,Cc1cc(Cl)ccc1NC(=O)Cn1nc(C)c2c(C)n(-c3ccccc3)nc2c1=O,inactive: -17.6%
6,CC(=O)N1CCc2c(sc3nc(SCC(C)C)n(-c4ccc(C)c(Cl)c4)c(=O)c23)C1,inactive: 29%
7,Cc1ccc(-c2nnc(Nc3ccc(OC(F)(F)Cl)cc3)c3ccccc23)cc1S(=O)(=O)NC(C)(C)CO,inactive: -7.05%
8,Cc1nc2scc(C)n2c(=O)c1S(=O)(=O)Nc1ccc(N2CCN(S(C)(=O)=O)CC2)cc1,active: 79.6%
9,N[C@@H](Cc1ccc(O)cc1)C(=O)O,inactive: -21.1%
10,O=C(COc1ccc(Cl)cc1)N1CCN(Cc2ccc3c(c2)OCO3)CC1,inactive: 40.5%
11,CCc1nn2c(=O)cc(COC(=O)c3ccc(NC(=O)CCc4ccccc4)cc3)nc2s1,inactive: -20.8%
12,O=C(Nc1ccc(-c2nc3cc(NC(=O)c4ccc(F)cc4)ccc3o2)cc1)c1ccc(F)cc1,inactive: 2.56%
13,CCCCn1c(=N)c(S(=O)(=O)c2ccc(C)cc2)cc2c(=O)n3cc(C)ccc3nc21,inactive: -2.27%
14,Nc1ccc(NC(=O)c2cccc(C(=O)Nc3ccc(N)cc3Cl)c2)c(Cl)c1,inactive: -1.73%
15,O=C(COc1ccccc1)N(Cc1cccnc1)c1nc2c(F)cccc2s1,inactive: -8.39%
16,Cc1nn(C(C)C(=O)Nc2ccc(C(C)C)cc2)c(=O)c2c1sc1ccccc12 (configuration not stated),inactive: -12.4%
17,CC(NC(=O)C1CCN(S(=O)(=O)c2ccccc2)CC1)c1ccccc1 (configuration not stated),inactive: -6.3%
18,CCc1nc(SC)ncc1C(=O)N1CCN(c2cc(Cl)ccc2C)CC1,inactive: -9.02%
19,CCCN(CCC)CCCNC(=O)c1cnn(-c2ccc(F)cc2)c1-n1cccc1,inactive: 7.85%
